In the supplement of paper PMC3334620:
Whole data set: some 33,000 sequences, median “E-score (-0.5 to 0.5)” near -0.01, cut for the highest 2% near 0.26. Some of the results follow.

Each sequence was assayed against Ste12 (UniProt P13574) (assay: PBM E-score (8-mer binding enrichment) (E-score (-0.5 to 0.5)); higher = stronger / more preferred TF binding; most listed sequences are background and not binding sites). Conditions: protein concentration: 200 nM; construct: GST-DNA-binding domain.
Outline: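 Universal all-10-mer Agilent arrays, fresh or stripped once, were converted to double-stranded form by primer extension. GST-tagged yeast transcription factors from PURExpress in vitro transcription/translation, full-length or DNA-binding domain only, were applied at about 100-200 nM and detected with fluorescent anti-GST. After masliner normalisation, the Universal PBM Analysis Suite scored each ungapped eight-base word together with its reverse complement by E-score.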

Sequence | PBM E-score
AGATTCAC | -0.0623
ATCCAAAC | 0.047
CGGCGCGC | 0.189
CAGCGTAG | -0.213
CATGTCGG | -0.0312
AAGGACCG | -0.0909
AGCGTCTC | -0.0609
GGCTCACA | -0.0236
GACACGTA | -0.0852
AGTCCTAG | -0.205
CCTCCGTA | -0.0604
GAGTATGC | -0.0663
CATTCAAG | 0.01
CTACTTAA | -0.0354
CCTCCTGA | -0.105
CTCCGGTC | 0.0119
GAATGGCC | -0.02
CAGTCGTC | -0.139
CATCGAGC | 0.0532
CCGGGCAG | -0.0654
CAGCCGCG | 0.00383
ATACAGTA | 0.0955
CGGAGCCC | -0.104
AGAAGACA | -0.132
AGGAGAGC | -0.187

Sequence | PBM E-score
CTATAGCA | -0.108
AAGCGTTG | -0.0369
TATTTCCA | 0.204
CGTGGTAC | -0.172
AAAAATGG | 0.104
TCCATACA | 0.119
ACCGTGAC | -0.134
ACTTGACC | -0.179
GACAACTA | -0.034
ATCGTAGC | -0.133
ACTCCGGC | 0.0806
GATGCTAA | -0.0461
AAGCATAA | 0.142
AATTTAGG | 0.171
ACGGCGAC | -0.0664
AAAGAGAC | 0.0261
ATGCATCG | -0.00895
AGTGTGAA | 0.15
AGCGTCCG | -0.197
GAATGTTA | -0.0177
CCAGCAAC | 0.0447
CGGATTTA | 0.147
AGAGGCAT | 0.0101
AGACATAC | -0.0989
GGACTTAC | -0.155

Sequence | PBM E-score
CCCGTCTC | 0.043
TCCGAGGA | 0.0237
CCGGTCCG | -0.0528
ATGAGATA | 0.0495
GCGATCAA | -0.0064
GTCATGTA | 0.0111
GCACCCAA | -0.041
ATGGGTTG | 0.0565
CTAAGCAG | -0.17
TCAATCCA | 0.0701
GATTGGCA | -0.00753
ACCAGCAA | 0.167
CTACCCTC | -0.0776
ACGAGCCT | -0.0238
AGCTAGAC | -0.0972
CGTAGGCC | -0.167
GCCCTCGA | -0.216
AGCGTATC | -0.104
AGCCAAGA | 0.104
AGTGTTTA | 0.174
CAGCTGCC | -0.0729
CCCTTTGC | 0.0802
ATTTCGGC | 0.119
AGAGAAAA | 0.0984
ATTGGACG | -0.0864

Sequence | PBM E-score
GTATATAA | 0.195
AGTGACGG | 0.0725
ACTTTGCC | 0.00902
ACATATAT | 0.156
ACGACGGC | -0.0913
CACTACGG | -0.00988
GTCAGTGA | 0.124
TCCGATCA | 0.0466
CATTCGCG | 0.0139
CGACGGGC | 0.0783
CTAACGGC | -0.0316
CAATTCAA | -0.0136
ACCTTAAT | -0.0247
AATCGGGC | 0.0955
CAAGCATG | -0.09
GGATTGCC | -0.113
ATTTAAAT | 0.327
ATGACTCG | -0.0623
ACACGAGC | -0.0613
AGATAAAG | 0.0953
ACAATCCA | 0.0824
AACTTAGC | -0.0978
GGCTTAGA | -0.0335
AACTCCAG | -0.172
CATTCCAC | 0.00027

Sequence | PBM E-score
CTGCTCAA | -0.189
AACCATAG | 0.0363
ACTGTGAC | 0.13
GGCAAGCA | -0.13
CCGCGATC | -0.0477
CTGGGACC | -0.17
GCGGAAGC | -0.17
GCAATGAA | 0.115
GTGATAGA | 0.00724
AGTTGGCA | -0.0511
ACTTCACT | 0.0528
ATTTAAAG | 0.275
AATAAGGA | 0.0761
AAGGTCAT | -0.203
CGGTGCCC | -0.174
AATTGAGT | 0.195
AAAAAAGT | 0.233
CTGTAACA | 0.268
ACTCTGTG | -0.109
CCACATCA | 0.0896
ATGGATTC | 0.186
AACCCCGG | -0.0682
ACCCCTGA | 0.128
TCACGGCA | -0.0804
CCGAGGCG | -0.00873

Sequence | PBM E-score
ACTATCGG | -0.00489
CAATGTCA | 0.0731
CTTCCGTA | 0.0543
ACGTAATC | 0.107
ACACACGT | -0.0424
AGCAAAAA | 0.228
TGGACTAA | 0.0901
TAACACGA | -0.0288
AGTCCTAA | -0.0755
GGATGACA | -0.0203
ATCCAAGG | -0.106
CTTAGTTA | 0.0576
ACAGTCGG | -0.0489
GAGGTGTA | 0.0333
CAAGGGTG | -0.102
GGAACGAA | 0.18
ACCCCTTA | -0.172
GTGTAAGA | 0.058
CTAGAGAG | -0.288
CTACCGTC | -0.103
CTTCAGGC | -0.0906
CGCTAGAG | -0.304
AACGGATC | 0.0513
CGATTAGC | 0.00866
ATCATTCA | 0.108

Sequence | PBM E-score
TAAGGTAA | 0.138
GCTGCAGC | 0.134
GCGGATTA | 0.0582
ACTTTGCT | -0.169
CGGGTTAC | 0.0422
GAGAGAGA | -0.0897
CGTCATAC | 0.111
AATTCGGC | -0.054
GCCTTTAA | 0.0888
CTGCGCGA | -0.0987
ATATGTGG | 0.0175
AGACAACT | -0.0623
GCTTCGAA | -0.0707
GGTAAACA | 0.28
AGCTGAAC | -0.288
AAATCTGG | 0.21
AAGGGGGC | -0.0414
AGTGAAGC | -0.055
ATGGGGAA | 0.0391
GTGATCAC | 0.0151
AATCGACC | -0.0437
AGTTCCCC | -0.00638
